Data on two molecules can be found in patent US20220349893A1, “METHODS FOR THE TREATMENT OF ARID1A-DEFICIENT CANCERS” (The Wistar Institute of Anatomy and Biology, priority 2019, published 2022).

Series [1] relates to ARID1A mutated TOV21G OCCC cells. As to the kind of experiment: Orthotopic xenograft model formed by ARID1A mutated TOV21G OCCC cells. It counts as in vivo, mouse. The note with it: 200 mg/kg orally twice daily for three weeks. An excerpt:
FIG. 10. A GLS inhibitor selectively decreases ARID1A-deficient tumors in vivo. The inventors sought to determine the therapeutic potential of GLS inhibitor CB-839 for ARID1A-mutated tumors. Toward this goal, they used three different mouse models. First, they used orthotopic xenograft models formed by ARID1A mutated TOV21G OCCC cells. Briefly, the orthotopically transplanted cells were allowed to grow for one week to establish the orthotopic tumors. Mice were then randomized and treated twice daily for three weeks with vehicle control or CB-839 (200 mg/kg) orally, feeding with normal and aspartic acid free food. The used tumor weight as a surrogate for tumor burden.

Series [2] concerns MDA-MB-231 cells. The note with it: 1 μM; 72 hours; cited from earlier work.
In another series the test system is ARID1A mutated OCCC PDX. Briefly: ARID1A-mutated PDX OCCC xenograft model. It counts as in vivo, mouse. The text has this:
(§1) FIG. 14. A GLS inhibitor selectively decreases ARID1A-deficient PDX. ARID1A wild-type and mutated PDX OCCC xenograft models were used to evaluated the antitumor effect of glutaminase inhibitor.

The test system of series [3] is MDA-MB-231 cells. The note with it: 0.1-1000 nM; 72 hours; read-out: IC50, antiproliferative activity; cited from earlier work.
A further series deals with glutaminase in kidney. The note with it: cited from earlier work.
The test system of series [4] is ARID1A wild-type control RMG1 cells. As to the kind of experiment: Tumors formed by ARID1A wild-type control RMG1 cells. It counts as in vivo, mouse. The text has this:
(§2) FIG. 11. A GLS inhibitor selectively decreases ARID1A-deficient tumors in vivo.

In series [5] the test system is glutamine utilization by the tumors. Briefly: Glutamine levels in treated tumors. The note with it: in vivo. An excerpt:
FIG. 16. GLSi increases the Gln levels in tumors.

Series [6] deals with Arid1a-/-/Pik3caH1047R ovarian clear cell carcinoma. As to the kind of experiment: Conditional genetic Arid1a/Pik3caH1047R OCCC mouse model. The note with it: CB-839 200 mg/kg twice daily orally, pre-established genetic OCCC model.
For a further series, the system named is RMG1 cells. As to the kind of experiment: CB-839 IC50 in ARID1A wild-type control and knockout RMG1 cells. It counts as cell-based. The text has this:
FIG. 3. ARID1A-deficient cells are sensitive to glutaminase inhibition. The inventors also tested CB-839, a specific glutaminase inhibition, in ARID1A wild-type control and knockout RMG1 cells. The inventors chose CB-839 for our experiments because it is the only GLS inhibitor that is now in clinical trials for other diseases and is proven safe in clinical trials including in combination studies.

The subject of series [7] is ARID1A knockout RMG1 cells. Briefly: Orthotopic xenografts formed by ARID1A knockout RMG1 cells. It counts as in vivo, mouse.
Source text: as §2

For another series, the system named is HCC1806 cells. The settings on record: 0.1-1000 nM; 72 hours; read-out: IC50, antiproliferative activity; cited from earlier work.
Another series deals with glutaminase in brain. The note with it: cited from earlier work.
Series [8] concerns ARID1A wild-type OCCC PDX. As to the kind of experiment: ARID1A wild-type PDX OCCC xenograft model. It counts as in vivo, mouse.
Source text: as §1

A further series deals with HCCC1806 cells. The settings on record: 1 μM; 72 hours; cited from earlier work.
For series [9], the system named is ARID1A-mutated or knockout cells. Briefly: Sensitivity to CB-839 with aspartate supplementation or SLC1A3 expression. It counts as cell-based. An excerpt:
FIG. 5. Supplementation of aspartate abolishes sensitivity to CB-839.

For series [10] the following is noted: water; cited from earlier work.
The test system of series [11] is experimental glioblastoma. The note with it: combined with calorie-restricted ketogenic diet; cited from earlier work.

On to `O=C(Cc1cccc(OC(F)(F)F)c1)Nc1ccc(CCCCc2nnc(NC(=O)Cc3ccccn3)s2)nn1` [CB-839, Telaglenastat], for which, in [1], the “burden of orthotopic xenografts (tumor weight)” value is recorded as “significantly reduced the burden of orthotopic xenografts”. In addition, the “survival of tumor bearing mice” value in series [1] was “significant improvement of survival”. Moreover, in [1] (aspartic acid free food), the “effect on tumor burden with aspartic acid free food” value is “The effect was enhanced”. Also, the “caspase 3/7 activation and apoptosis” value in the series on MDA-MB-231 cells [2] is “activates caspase 3/7 and induces apoptosis”; in the series with HCCC1806 cells, “activates caspase 3/7 and induces apoptosis”. Also, the tumor burden result in the series with ARID1A mutated OCCC PDX is given as “significantly reduced the tumor burden”; in [8] it was “but not ARID1A wild-type”. The IC50 in the series on MDA-MB-231 cells [3] was 26 nM; on glutaminase in kidney, 28 nM; in the series on HCC1806 cells it was 49 nM; on glutaminase in brain it was 23 nM. For the same molecule, the growth of tumors entry in series [4] is “did not significantly affect the growth of tumors”. Further, the “glutamine levels in the treated tumors” value in series [5] is given as “significantly increased glutamine levels”. Also, the “tumor burden (tumor weight)” value in [6] was “significantly reduced the burden”. Besides, in the series with RMG1 cells (RMG1 cells, ARID1A knockout vs wild-type control), the “decrease of the IC50 of CB-839 by ARID1A knockout compared with ARID1A wild-type control cells” value is recorded as “more than 300 fold”. Moreover, the “rescue of the decrease in CB-839 IC50” value in the series with RMG1 cells (ectopic expression of wild-type ARID1A in ARID1A knockout RMG1 cells) is recorded as “can be rescued by ectopic expression of wild-type ARID1A”. Moreover, the “burden of orthotopic xenografts” value in series [7] was “significantly reduced the burden of orthotopic xenografts”. For the same molecule, in series [9] (RMG1 knockout cells without endogenous SLC1A3), the “sensitivity to CB-839 on ectopic expression of aspartate transporter SLC1A3” value is “reduced the sensitivity to CB-839”. Further, the “sensitivity to CB-839 on addition of aspartate” value in series [9] (aspartate added to culture medium of ARID1A-mutated or knockout cells) is recorded as “reduced the sensitivity to CB-839”.

Take `[N-]=[N+]=CC(=O)CC[C@H](N)C(=O)O` [DON, 6-Diazo-5-oxo-L-norleucine]: in [10], the solubility entry was “water-soluble”. Further, the “tumor cell kill, disease symptoms and overall survival” value in series [11] was “kill tumor cells while reversing disease symptoms and improve overall survival”.
